In all, about 81,000 sequences were measured (“one-hybrid fitness for binding parS DNA”: median about -0.17, highest 2% from about 0.51 on). The list shows a part of the results.
B1: Caulobacter ParB omega fusion; a variant is named by its letters at X, in order, B8GW30 (parent)
chain: MESVVVGEPGMSEGRRGLGRGLSALLGEVDAAPAQAPGEQLGGSREAPIEILQRNPDQPRRTFREEDLEDLSNSIREKGVLQPILVRPSPDTAGEYQIVAGERAWRAAQRAGLKTVPIMVRELDDLAVLEIGIIENVQRADLNVLEEALSYKVLMEKFERTQENIAQTIGKSXSHVANXMRLLXLPDEVQSYLVSGELTAXHARAIAAAADPVALAKQIIEGGLSVRETEALARKAPNLSAGKSKGGRPPRVKDTDTQALESDLSSVLGLDVSIDHRGSTGTLTITYATLEQLDDLCNRLTRGI

Variants of: B1
Test: one-hybrid fitness for binding parS DNA (scaled: cognate 1, non-cognate 0); higher = stronger binding
Conditions: with parS DNA site
Procedure, shortened: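 Caulobacter ParB libraries with four specificity codons randomised were screened by bacterial one-hybrid selection in the E. coli USO strain, using a HIS3 reporter whose site lies 19 bp from the promoter. Selection ran for 48 hours at 37°C on M9 lacking histidine, with 0.1 mM IPTG and 5 mM 3-AT. Plasmids were Illumina-sequenced before and after selection, three replicate libraries were pooled, and variants with under 10 reads were dropped. Fitness is the log change in each variant's read ratio to wild type, rescaled against the cognate and non-cognate sites.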

Variant | one-hybrid fitness for binding parS DNA
AGAN | ≤ 0.2
FRDY | ≤ 0.2
WYTA | 0.313
NDKW | ≤ 0.2
QMVE | ≤ 0.2
VNRI | ≤ 0.2
RHRN | 0.374
DTTG | ≤ 0.2
SSFK | ≤ 0.2
THRK | ≤ 0.2
ISHA | ≤ 0.2
TGCW | ≤ 0.2
DQAF | ≤ 0.2
RFDS | 0.954
FDKS | ≤ 0.2
AMPA | ≤ 0.2
HQRG | ≤ 0.2
QVPC | ≤ 0.2
CKYK | ≤ 0.2
MTVS | ≤ 0.2
DIVI | ≤ 0.2
GHSG | ≤ 0.2
SKRG | ≤ 0.2
SIPR | ≤ 0.2

Variant | one-hybrid fitness for binding parS DNA
PSNG | ≤ 0.2
MRAH | ≤ 0.2
AMGV | ≤ 0.2
NDDG | ≤ 0.2
QDWS | ≤ 0.2
GNDG | ≤ 0.2
IMDL | ≤ 0.2
QDVC | ≤ 0.2
ERKF | ≤ 0.2
GTFR | ≤ 0.2
EMMT | ≤ 0.2
RYCA | 0.46
MKMG | ≤ 0.2
QCQR | ≤ 0.2
GKFE | ≤ 0.2
YWKM | ≤ 0.2
ASWT | ≤ 0.2
KTPV | ≤ 0.2
VSMC | ≤ 0.2
GLLF | ≤ 0.2
RPGD | ≤ 0.2
RWSM | 0.216
TDHR | ≤ 0.2
KCRC | ≤ 0.2

Variant | one-hybrid fitness for binding parS DNA
TYGR | ≤ 0.2
FRQA | ≤ 0.2
QRVY | ≤ 0.2
KYQT | ≤ 0.2
SNDV | ≤ 0.2
RAGH | 0.268
CGRH | ≤ 0.2
FSHG | ≤ 0.2
AWPA | ≤ 0.2
ETGK | ≤ 0.2
NGSW | ≤ 0.2
QTEA | ≤ 0.2
PIFG | ≤ 0.2
LIPT | ≤ 0.2
PTMC | ≤ 0.2
RNDW | ≤ 0.2
AIIS | ≤ 0.2
RVYV | ≤ 0.2
VPSV | ≤ 0.2
NAIC | ≤ 0.2
LTIL | ≤ 0.2
STAR | ≤ 0.2
TVTR | ≤ 0.2
RSQH | 0.296

Variant | one-hybrid fitness for binding parS DNA
PWTQ | ≤ 0.2
YRNG | ≤ 0.2
CHQW | ≤ 0.2
KPAM | ≤ 0.2
YDYN | ≤ 0.2
HTPQ | ≤ 0.2
NFSC | ≤ 0.2
ADHT | ≤ 0.2
SDPG | ≤ 0.2
YTDC | ≤ 0.2
VNES | ≤ 0.2
VSEL | ≤ 0.2
NQKS | ≤ 0.2
RICT | 0.853
EQDL | ≤ 0.2
CQLW | ≤ 0.2
SLLN | ≤ 0.2
SQLP | ≤ 0.2
LGFR | ≤ 0.2
VRSN | ≤ 0.2
VCLG | ≤ 0.2
ACMC | ≤ 0.2
MGYG | ≤ 0.2
VWCS | ≤ 0.2

Variant | one-hybrid fitness for binding parS DNA
MHAC | ≤ 0.2
YFRS | ≤ 0.2
VDVC | ≤ 0.2
LARC | ≤ 0.2
MRRR | ≤ 0.2
RHWA | 0.486
THQG | ≤ 0.2
MAYW | ≤ 0.2
STPY | ≤ 0.2
QCTC | ≤ 0.2
VHLM | ≤ 0.2
LRPH | ≤ 0.2
DGDG | ≤ 0.2
HQLV | ≤ 0.2
YNRL | ≤ 0.2
DEHR | ≤ 0.2
NSLV | ≤ 0.2
TVDI | ≤ 0.2
QIMK | ≤ 0.2
VATW | 0.201
SMTE | ≤ 0.2
RYMV | ≤ 0.2
KSRT | ≤ 0.2
THGY | ≤ 0.2

Variant | one-hybrid fitness for binding parS DNA
TATP | ≤ 0.2
PCDW | ≤ 0.2
QMCI | ≤ 0.2
QQKQ | ≤ 0.2
HAGR | ≤ 0.2
SPNS | ≤ 0.2
TERR | ≤ 0.2
QRLE | ≤ 0.2
FASQ | ≤ 0.2
TIKM | ≤ 0.2
DQER | 0.28
TLPT | ≤ 0.2
RKYE | ≤ 0.2
ISPG | ≤ 0.2
LSMY | ≤ 0.2
QKNP | ≤ 0.2
DMCS | ≤ 0.2
YPKS | ≤ 0.2
RTWR | 0.207
SAKM | ≤ 0.2
RHAI | ≤ 0.2
CNYS | ≤ 0.2
GSVT | ≤ 0.2
IPNV | ≤ 0.2

Variant | one-hybrid fitness for binding parS DNA
QITD | ≤ 0.2
LHRC | ≤ 0.2
QPPP | ≤ 0.2
AETC | ≤ 0.2
NMSL | ≤ 0.2
IEHC | ≤ 0.2
PAHQ | ≤ 0.2
RYEE | ≤ 0.2
DSTT | ≤ 0.2
NFDC | ≤ 0.2
KTCT | ≤ 0.2
PNVF | ≤ 0.2
DKFS | ≤ 0.2
YSHT | ≤ 0.2
STKW | ≤ 0.2
RYHE | ≤ 0.2
ALNQ | ≤ 0.2
RFFA | 0.492
VVHR | ≤ 0.2
FSNS | ≤ 0.2
QCNP | ≤ 0.2
VNQR | ≤ 0.2
GLRP | ≤ 0.2
VVRW | ≤ 0.2

Variant | one-hybrid fitness for binding parS DNA
NLHY | ≤ 0.2
QKKW | ≤ 0.2
VQGF | ≤ 0.2
RCII | 0.233
RERR | ≤ 0.2
PGKF | ≤ 0.2
WMYG | ≤ 0.2
KQAL | ≤ 0.2
VTNT | ≤ 0.2
INRE | ≤ 0.2
ITRA | ≤ 0.2
RKCW | ≤ 0.2
GPPN | ≤ 0.2
RFDV | ≤ 0.2
LNDN | ≤ 0.2
DVSE | ≤ 0.2
TIFK | ≤ 0.2
PTRQ | ≤ 0.2
QESR | ≤ 0.2
RYQN | 0.318
QIIT | ≤ 0.2
HMWG | ≤ 0.2
PYLC | ≤ 0.2
RSQN | 0.427

Variant | one-hybrid fitness for binding parS DNA
QLRG | ≤ 0.2
VRSK | ≤ 0.2
QPLV | ≤ 0.2
CSYD | ≤ 0.2
YQWS | ≤ 0.2
YCQR | ≤ 0.2
THQS | ≤ 0.2
PVAF | ≤ 0.2
PQRR | ≤ 0.2
YEYR | ≤ 0.2
ICVT | ≤ 0.2
KSIF | ≤ 0.2
CFLG | ≤ 0.2
KNTI | ≤ 0.2
TFRH | ≤ 0.2
ESKG | ≤ 0.2
CQIS | ≤ 0.2
QRYW | ≤ 0.2
DIQS | ≤ 0.2
RNKD | ≤ 0.2
DVQC | ≤ 0.2
REIA | ≤ 0.2
SWDS | ≤ 0.2
FSIY | ≤ 0.2

Variant | one-hybrid fitness for binding parS DNA
RYWM | 0.342
DYPR | ≤ 0.2
PDYG | ≤ 0.2
WQLT | ≤ 0.2
DLDD | ≤ 0.2
KWHG | 0.22
STYW | ≤ 0.2
VREG | ≤ 0.2
TTGG | ≤ 0.2
RETG | 0.249
GCPF | ≤ 0.2
ISML | ≤ 0.2
NFTC | ≤ 0.2
ERDI | ≤ 0.2
ARMV | ≤ 0.2
TSWM | ≤ 0.2
AWGR | ≤ 0.2
GSKC | ≤ 0.2
YEAC | ≤ 0.2
RHYK | ≤ 0.2
NNIR | ≤ 0.2
ISKG | ≤ 0.2
LYIP | ≤ 0.2
LQKM | ≤ 0.2

Variant | one-hybrid fitness for binding parS DNA
RGFQ | ≤ 0.2
KTDK | ≤ 0.2
QLWS | ≤ 0.2
MRLG | ≤ 0.2
LTQL | ≤ 0.2
PRWE | ≤ 0.2
HRWR | ≤ 0.2
QPNH | ≤ 0.2
TLVP | ≤ 0.2
TSAA | ≤ 0.2
QHED | ≤ 0.2
DDAT | ≤ 0.2
RSQI | ≤ 0.2
QNSL | ≤ 0.2
HGQW | ≤ 0.2
FRWL | ≤ 0.2
LLFA | ≤ 0.2
PNPS | ≤ 0.2
CYYG | ≤ 0.2
GTKA | ≤ 0.2
ESHS | ≤ 0.2
DACT | ≤ 0.2
AMTV | ≤ 0.2
LMSL | ≤ 0.2

Variant | one-hybrid fitness for binding parS DNA
RMKV | ≤ 0.2
QMVS | ≤ 0.2
DRYK | ≤ 0.2
TTTW | ≤ 0.2
SADH | ≤ 0.2
ETGR | ≤ 0.2
GSMY | ≤ 0.2
TDHL | ≤ 0.2
KRGF | ≤ 0.2
SYVS | ≤ 0.2
LDTW | ≤ 0.2
MKTR | ≤ 0.2
GMCE | ≤ 0.2
SKDT | ≤ 0.2
QHNL | ≤ 0.2
IRKW | ≤ 0.2
RPCI | ≤ 0.2
RNQN | 0.284
NVWL | ≤ 0.2
HNTM | ≤ 0.2
ACCP | ≤ 0.2
FVQC | ≤ 0.2
QQVL | ≤ 0.2
RPRE | ≤ 0.2

Variant | one-hybrid fitness for binding parS DNA
AGSL | ≤ 0.2
CLVM | ≤ 0.2
HFKK | ≤ 0.2
TACC | ≤ 0.2
PNKR | ≤ 0.2
PNDH | ≤ 0.2
YRTA | ≤ 0.2
TMRY | ≤ 0.2
CQNS | ≤ 0.2
VMQG | ≤ 0.2
RECR | ≤ 0.2
FAAV | ≤ 0.2
NSSA | ≤ 0.2
TNWR | ≤ 0.2
CDLS | ≤ 0.2
QACY | ≤ 0.2
SLPH | ≤ 0.2
PLSC | ≤ 0.2
